Experiment [1] concerns BT474-Gluc brain tumors. Kind of experiment: BT474-Gluc brain tumor growth and survival analysis. Format: in vivo, nude mice. The conditions noted are these: MOR10703 25 mg/kg every two days i.p., COMPOUND A 30 or 50 mg/kg once a day p.o., FIG. 2A. An excerpt:
We tested the ability of the HER3 inhibitor MOR10703 alone or in combination with COMPOUND A, to slow the growth of BT474-Gluc brain tumors BM (FIG. 2A-B). […] The tumor growth delay with the combination therapies led to a 2.5 or 2-fold increase in survival, compared with the COMPOUND A monotherapy group, in BT474-Gluc or MDA-MB-361-Gluc brain tumors, respectively (3A-B).
Female nude mice (8-9 wk of age) were ovariectomized and implanted with a 0.36-mg or 0.72-mg 17β-estradiol pellet (Innovative Research of America) the day before implantation of tumor cells. Pellets were replaced at expiration date, either 60 or 90 days. For the mammary fat pad model, 5×10^6 BT474-Gluc cells were suspended in a 50-μL mixture of PBS and Matrigel Matrix High Concentration (BD Biosciences) at a 1:1 ratio before injection. For injection into the brain, the head of the mouse was fixed with a stereotactic apparatus and the skull over the left hemisphere of the brain was exposed via skin incision. […]
Tumor size was measured twice a week by measuring the activity of secreted Gluc in the blood. […] Blood was transferred to an opaque 96-well plate, and Gluc activity was measured using coelenterazine (CTZ; Nanolight) as a substrate and a plate luminometer (Centro XS LB960; Berthold Technologies). […]
Data are expressed as the mean±SEM unless otherwise noted. […]

Experiment [2] has as its system T-47D, BT474 and MDA-MB-361 cells. Kind of experiment: In vitro cell growth assay (xCELLigence, CellTiter-Glo), NRG1-induced resistance. As to conditions: MOR10703 100 nM, NRG1 10 ng, COMPOUND A 1 μM. Format: cell-based, human. The protocol:
The xCELLigence system (Acea Biosciences Inc.) was used to assess the cell index of T-47D, BT474 and MDA-MB-361 cells. xCELLigence measures electrical impedance across micro-electrodes integrated at the bottom of tissue culture E-plates to provide quantitative information about the biological status of cells, including cell number, morphology and viability. One day before drug addition, cells were seeded in 96-well E-plates at a density of 6000-10000 cells per well in 90 μl growth media. Cells were monitored every 15 m for a period of up to 24 h via the incorporated sensor electrode arrays of the E-Plate 96. After 24 h incubation E-plates were removed, and MOR10703 (100 nM) was added first and incubated for 1 h followed by NRG1 (10 ng) and/or COMPOUND A (1 μM). Each treatment was tested in triplicate. Electric impedance was measured in 1 h intervals after addition of drug until the end of the experiment. Cell index value, which is a dimensionless parameter derived as a relative change in measured electrical impedance to represent numbers of attached cells, was calculated from the electric impedance and plotted using the RTCA software provided by the vendor. At the end of the experiment, cell growth and/or viability was determined by measuring cellular ATP content using the CellTiter-Glo Luminescent Cell Viability Assay (Promega; Madison, Wis.) according to the manufacturer's protocol.
(In general: ATP-based viability assays read luminescence as a measure of living cells.)

B1: MOR10703: HER3 inhibitor antibody, sequence in Table 1; induces a conformational change and locks HER3 in an inactive state (antibody)
heavy: EVQLLESGGGLVQPGGSLRLSCAASGFTFSSYAMSWVRQAPGKGLEWVSAINSQGKSTYYADSVKGRFTISRDNSKNTLYLQMNSLRAEDTAVYYCARWGDEGFDIWGQGTLVTVSSASTKGPSVFPLAPSSKSTSGGTAALGCLVKDYFPEPVTVSWNSGALTSGVHTFPAVLQSSGLYSLSSVVTVPSSSLGTQTYICNVNHKPSNTKVDKRV[here human IgG1 Fc without letters]
light: DIQMTQSPSSLSASVGDRVTITCRASQGISNWLAWYQQKPGKAPKLLIYGASSLQSGVPSRFSGSGSGTDFTLTISSLQPEDFATYYCQQYSSFPTTFGQGTKVEIKRTVAAPSVFIFPPSDEQLKSGTASVVCLLNNFYPREAKVQWKVDNALQSGNSQESVTEQDSKDSTYSLSSTLTLSKADYEKHKVYACEVTHQGLSSPVTKSFNRGEC
Regarding B1, the “growth of breast cancer in the brain parenchyma (blood Gluc activity)” value in experiment [1] was “did not significantly slow the growth”. The “effect on NRG1-induced breast cancer PI3K inhibitor resistance” value in experiment [2] is “overcome”.

(Values after US10689459B2, “Treatment of breast cancer brain metastases” (THE GENERAL HOSPITAL CORPORATION, priority 2014, dated 2020).)
